The structures appear in SMILES notation. About 14,000 (4.5%) of roughly 310,000 compounds showed an effect of 50% or more. Effects have a minus sign here. This is one part of the list.
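Also: peak tail current of the secondary pulse compared with the same well before compound.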

Chain of human ether-à-go-go-related gene (hERG) potassium channel (Q12809 whole entry, looked up): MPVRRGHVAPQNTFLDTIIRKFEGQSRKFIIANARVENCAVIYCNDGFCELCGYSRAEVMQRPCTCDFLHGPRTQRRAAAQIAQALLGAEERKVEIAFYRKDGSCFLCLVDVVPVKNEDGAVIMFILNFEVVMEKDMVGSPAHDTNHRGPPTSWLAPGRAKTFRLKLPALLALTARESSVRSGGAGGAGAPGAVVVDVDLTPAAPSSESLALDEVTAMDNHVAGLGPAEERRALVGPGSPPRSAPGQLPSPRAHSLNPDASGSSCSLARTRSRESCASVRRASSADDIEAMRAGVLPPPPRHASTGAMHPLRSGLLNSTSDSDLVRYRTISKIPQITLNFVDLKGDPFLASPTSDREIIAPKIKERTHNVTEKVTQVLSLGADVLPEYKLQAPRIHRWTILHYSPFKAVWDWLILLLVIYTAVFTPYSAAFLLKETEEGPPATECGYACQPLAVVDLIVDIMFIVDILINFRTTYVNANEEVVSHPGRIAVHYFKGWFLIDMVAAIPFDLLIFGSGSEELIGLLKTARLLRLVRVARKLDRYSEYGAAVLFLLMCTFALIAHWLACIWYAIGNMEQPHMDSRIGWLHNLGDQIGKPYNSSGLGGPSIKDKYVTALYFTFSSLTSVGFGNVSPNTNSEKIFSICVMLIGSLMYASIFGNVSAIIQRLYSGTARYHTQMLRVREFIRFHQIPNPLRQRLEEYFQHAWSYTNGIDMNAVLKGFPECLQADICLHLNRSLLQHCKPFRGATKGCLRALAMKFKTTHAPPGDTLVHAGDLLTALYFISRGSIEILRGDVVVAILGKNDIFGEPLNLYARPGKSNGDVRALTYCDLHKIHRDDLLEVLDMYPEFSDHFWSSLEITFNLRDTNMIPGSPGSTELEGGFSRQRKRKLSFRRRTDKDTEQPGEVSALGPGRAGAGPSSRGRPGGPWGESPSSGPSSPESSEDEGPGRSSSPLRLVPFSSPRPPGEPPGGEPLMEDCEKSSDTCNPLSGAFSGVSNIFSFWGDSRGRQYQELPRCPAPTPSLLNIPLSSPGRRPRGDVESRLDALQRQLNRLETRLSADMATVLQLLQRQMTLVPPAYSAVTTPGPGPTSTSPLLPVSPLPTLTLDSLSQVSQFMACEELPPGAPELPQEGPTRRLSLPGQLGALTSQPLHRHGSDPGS

This assay addresses human ether-à-go-go-related gene (hERG) potassium channel (human, UniProt Q12809). In words: primary screen, population patch clamp on CHO cells stably expressing hERG.
On to `O=C(Nc1ccc(C(F)(F)F)cc1)c1cccc(-n2cnnn2)c1`, for which the “hERG current change (%, negative = inhibition) at 10uM” value is -11.4%.

Regarding `COc1cccc(OC)c1C(=O)Nc1ccccc1NC(=O)c1c(OC)cccc1OC`, the “hERG current change (%, negative = inhibition) at 10uM” value is reported as 24.1%. Then `COCCCNC(=O)c1c(NC(=O)c2cccs2)sc2c1CCCC2`, with 2.08%. Next, `COc1c(/C=C2\SC(=Nc3ccccc3Cl)NC2=O)cccc1[N+](=O)[O-]`: 12.1%; `Cc1[nH]nc(Nc2ccc(C(C)C)cc2)c1[N+](=O)[O-]`: 12.7%; `Cc1cc(=O)oc2cc(OCC(=O)N3c4ccccc4CC3C)ccc12` (stereo not shown): 15.2%. Then `Cc1ccc(Cn2c(C(C)Nc3nc(C)cs3)nc3cc(Cl)c(Cl)cc32)cc1` (stereo not shown), with 16%; and `COc1ccc(C)cc1NC(=O)C1CC(=O)N(Cc2ccco2)C1` (stereo not shown), with -0.0428%; and `CC(Oc1ccc(Br)cc1)C(=O)Nc1cc(S(=O)(=O)N2CCOCC2)ccc1N1CCCC1` (stereo not shown), with -5.62%. For the compound `CN1CCOCCOCCOCCN(C)C1=S`, the “hERG current change (%, negative = inhibition) at 10uM” value is given as 17.2%. Consider `CC(C)N(Cc1cc2ccccc2[nH]c1=O)C(=O)c1cccc([N+](=O)[O-])c1`, for which the “hERG current change (%, negative = inhibition) at 10uM” value was -13.4%. Then `CC(C)=C1SC(N2CCN(c3cccc(Cl)c3)CC2)=NC1=O`, with 6.89%. Then `CC(C)c1nc(-c2ccccn2)no1`, with -5.09%. Then `CCOCCCNC(=O)C(c1ccc(C)cc1)N(Cc1cccs1)C(=O)c1ccccn1` (stereo not shown), with 1.69%. With `O=C(c1ccc(F)cc1)N1CCN(c2ccc(N3CCOCC3)nn2)CC1`, the “hERG current change (%, negative = inhibition) at 10uM” value is recorded as -12%. Then `COc1cc(C)c(CN2CCC(Oc3ccc(C(=O)N4CCCC4)cc3)CC2)cc1C`, with -43.1%. Next, `CCOC(=O)c1c2c3c(cccc3n(C)c1=O)C(=O)c1ccccc1-2`: -71.8%. Next, `CCCCOc1ccc(/C=N/NC(=S)Nc2cccc(C)c2C)cc1`: -15.8%. Take `c1csc(-c2nc3ccccc3s2)c1`: the “hERG current change (%, negative = inhibition) at 10uM” value was -45.1%. Then `Cc1cccc(CN2C(=O)[C@@H]3Cc4c([nH]c5ccccc45)C(C)(C)N3C2=O)c1`, with -0.614%.

As for `Cc1ccc(-c2ccc(/C=N/NC(=O)CN3CCCC3)o2)cc1Cl`, the “hERG current change (%, negative = inhibition) at 10uM” value is given as -90.2%. Next, `Cc1cc(OC(C)C(=O)NNC(=O)Nc2ccc(F)cc2F)cc(C)c1Cl` (stereo not shown): 22.3%. Then `O=c1ccnc(SCCc2ccccc2)[nH]1`, with 17.2%; and `CCOC(=O)c1ccc(S(=O)(=O)N2CCN(CC(O)COc3cccc(C(C)=O)c3)CC2)cc1.O=C(O)C(=O)O` (stereo not shown), with -6.64%.

As to `CSC1=C(C#N)C(C)C2=C(CC(C)(C)CC2=O)N1` (stereo not shown), the “hERG current change (%, negative = inhibition) at 10uM” value is recorded as -0.415%. In the case of `COc1ccc(NC(=O)CSc2nnc(C3CC3)n2-c2ccccc2)cc1`, the “hERG current change (%, negative = inhibition) at 10uM” value is listed as -18%. Then `CC(C)Cn1c2c(c(O)c(C(=O)Nc3ncccc3O)c1=O)CCCC2`, with -6.01%. For `Cc1ccc(-n2nnnc2-c2nc3ccccc3s2)cc1`, the “hERG current change (%, negative = inhibition) at 10uM” value came out at 42.3%. Then `CCc1ccc(-c2csc(NC(=O)C3=NN(c4ccccc4)C(=O)CC3)n2)cc1`, with 16.8%; and `Cc1c(N2CCCC2)cc2c(c1NC(=O)c1ccccc1Cl)C(C)(C)CC2(C)C`, with -25.6%. Then `O=C(Nc1ccccc1)NN1CC(=O)N(c2ccc(Cl)cc2)CC1=O`, with 17.8%; and `CCC(C)(C)NC(=O)C(c1cccn1C)N(Cc1ccc(OC)cc1)C(=O)Cn1nnc2ccccc21` (stereo not shown), with -3.98%. Take `CN(C)CCCNC(=O)c1cc(C(=O)c2cccc(Cl)c2Cl)c[nH]1`: the “hERG current change (%, negative = inhibition) at 10uM” value was -51%. In the case of `O=[N+]([O-])c1ccc(Oc2ccc(-c3nnco3)cc2)c(Cl)c1`, the “hERG current change (%, negative = inhibition) at 10uM” value is on record as -8.14%. Next, `COc1ccc(-c2noc(N3CCCC(C(=O)Nc4ccc(F)cc4F)C3)n2)cc1` (stereo not shown): -37%; `CC(C)[C@H](N)c1nnc(SCc2ccc(Cl)cc2)o1.Cl`: -14.6%.

As for `Clc1ccc(Cc2nnc(-c3ccccc3Br)o2)cc1`, the “hERG current change (%, negative = inhibition) at 10uM” value is reported as -1.47%. As to `COc1ccc(S(=O)(=O)CCC(=O)N(C)c2ccc(OC)cc2OC)cc1`, the “hERG current change (%, negative = inhibition) at 10uM” value is recorded as -12.8%. For `COc1ccc(NC(=O)C2CCCC2)cn1`, the “hERG current change (%, negative = inhibition) at 10uM” value is recorded as 16.2%. Then `Cn1c(=O)c2c(ncn2CC(N)=O)n(C)c1=O`, with 13.9%; and `Cc1cc(C)cc(Nc2nc3c(S(=O)(=O)c4ccccc4)nnn3c3ccccc23)c1`, with 6.62%; and `Cc1ccc(N(CC(=O)Nc2c(C)n(C)n(-c3ccccc3)c2=O)S(C)(=O)=O)cc1C`, with 16%. Then `COC(=O)c1ccccc1NC(=O)c1ccc2c(c1)OCCCO2`, with 8.83%; and `CCCc1cc(=O)oc2cc(C)cc(OCC(=O)NCc3ccccn3)c12`, with -33.7%. Then `CC1CN(c2ccc(NC(=S)Nc3ccc(N4CC(C)OC(C)C4)cc3)cc2)CC(C)O1` (stereo not shown), with 19.5%; and `COc1ccccc1CC1(C)NC(=O)N(CC(=O)Nc2cc(C)on2)C1=O` (stereo not shown), with 7.53%. Consider `C[C@@H](N)Cc1cnc[nH]1.Cl`, for which the “hERG current change (%, negative = inhibition) at 10uM” value stood at 15.5%. Then `O=C(CCCN1C(=O)/C(=C\c2ccccc2)SC1=S)Nc1ccccc1O`, with 36.3%. Next, `Cc1sc2nc(CN3CCCC3)nc(N3CCN(S(=O)(=O)c4cccc(F)c4)CC3)c2c1C`: -70.1%. Then `CCc1nn(CC(=O)NCc2ccccc2Cl)c(=O)c2cccn12`, with 11.7%; and `COC(=O)c1ccc(NC(=O)Nc2ccc(C)cc2)cc1`, with -0.0581%.

For the compound `CCOC(=O)Cc1csc(NC(=S)NC(=O)c2ccc(F)cc2)n1`, the “hERG current change (%, negative = inhibition) at 10uM” value came to 11.9%. For the compound `COc1cc(CNC2CCCCCCC2)ccc1OCC(N)=O`, the “hERG current change (%, negative = inhibition) at 10uM” value is -0.113%. Then `Cc1cc(=O)oc2ccc(OC(=O)CC(C)C)cc12`, with 26.6%; and `CC1CCC2C(=O)N(c3ccc(C(=O)NCc4ccccc4)cc3)C(=O)C2C1` (stereo not shown), with 5.83%; and `CN(CC(=O)N1CC=C(c2ccccc2)CC1)S(=O)(=O)c1ccc2c(c1)c(=O)n(C)c(=O)n2C`, with -30.2%. For the compound `O=C(NCCNC(=O)c1ccccc1Br)c1cccnc1`, the “hERG current change (%, negative = inhibition) at 10uM” value was found to be 24%. Then `CCO[C@H]1OC(C(=O)O)=C[C@@H](C2CCCCC2)[C@@H]1CCCO`, with 12.5%; and `O=C(CNC(=O)OCc1ccccc1)NC1CCCCCC1`, with 22.6%. As for `Cc1cnc(C(=O)OCC(=O)c2csc(N3CCCCC3)n2)cn1`, the “hERG current change (%, negative = inhibition) at 10uM” value is on record as 2.53%. Then `Cn1nc(-c2ccc(OCC(=O)Nc3ccccc3)cc2)c2ccccc2c1=O`, with 8.71%.

In the case of `Cc1ccc(C(C(=O)NC2CCCC2)N(C(=O)CNC(=O)c2cccs2)c2cccnc2)o1` (stereo not shown), the “hERG current change (%, negative = inhibition) at 10uM” value is -11.1%. Then `O=C(Nc1nnc(SCCN2CCOCC2)s1)C1CC(=O)N(c2ccccc2)C1` (stereo not shown), with 3.77%. Next, `CCOC(=O)c1c(/N=C/C2C(=O)NC(=S)NC2=O)sc(C)c1C`: 11.4%; `Cc1ccc(S(=O)(=O)n2ccc3c(OCCOCCNCc4ccc(F)cc4)cccc32)cc1`: -5.55%; `CCc1cc(-c2n[nH]c(=S)n2Cc2ccccc2)cs1`: 7.7%.

As to `O=S(=O)(C/C(=C/CO)S(=O)(=O)c1ccccc1)c1ccccc1`, the “hERG current change (%, negative = inhibition) at 10uM” value is on record as -1.88%. Next, `COc1cccc(NC(=O)CN(C)C(=O)c2c(-c3ccccc3)noc2C)c1`: 4.01%; `C/C(=N\NC(=S)NC1CCCCC1)c1ccc(Cl)c(Cl)c1`: 4.06%; `CCOc1ccc(/C=N/O)cc1`: 16.8%. As to `CN(CC(=O)O/N=C(\N)c1ccc(Br)cc1)S(=O)(=O)c1ccccc1`, the “hERG current change (%, negative = inhibition) at 10uM” value came to 7.66%. Next, `CC(=O)Cc1nsc(NC(=O)c2ccc(-c3cc(C(F)(F)F)ccc3Cl)o2)n1`: 22.7%; `Cc1cccc2nc(C(=O)Nc3cc(Cl)ccc3-n3cncn3)cn12`: 0.864%; `CCOc1ccc(C(CC(=O)O)NC(=O)COc2ccccc2)cc1` (stereo not shown): 11.8%.

Consider `O=C1CCSc2cccc3cccc(c23)N1`, for which the “hERG current change (%, negative = inhibition) at 10uM” value is on record as -2.86%. Next, `CC(=O)c1ccc(S(=O)(=O)N(C)C(C)CCc2ccco2)cc1` (stereo not shown): -6.81%; `Cc1ccc(OP(N)(=O)Oc2ccc(C)cc2)cc1`: 12.9%. For `Cc1cc(NC(=O)c2cccnc2)ccc1NC(=O)c1ccco1`, the “hERG current change (%, negative = inhibition) at 10uM” value stood at 11.6%. Next, `COc1ccc(NS(=O)(=O)c2cc(NC(=O)c3ccco3)ccc2N2CCCC2)cc1`: -20.6%; `CCC(=O)N1CCc2cc(S(=O)(=O)N3CCCCCC3)ccc21`: 12.6%; `COc1cccc(CNC(=O)c2nnn(-c3ccc(OC(F)(F)F)cc3)c2N)c1`: -3.07%. Next, `Cc1ccc(C)c(N2CCN(CCCNC(=O)Cn3cccc3C(=O)c3ccccc3)CC2)c1`: -87.2%; `CC1CC2=C(C(=O)O1)C(c1ccccc1)Nc1ccccc1N2` (stereo not shown): 19.8%; `CC(C)NS(=O)(=O)c1ccc(CCC(=O)NCc2ccncc2)cc1`: -0.399%.

For the compound `CCCCc1cc(=O)oc2cc(C)cc(OCC(=O)N3CCC(C(=O)O)(c4ccccc4)CC3)c12`, the “hERG current change (%, negative = inhibition) at 10uM” value is 2.05%. Take `CCN(CC)S(=O)(=O)c1cccc(-c2nnc(SCCOc3ccc(Cl)cc3)o2)c1`: the “hERG current change (%, negative = inhibition) at 10uM” value is -10.3%. Next, `O=C(NCc1ccc(F)cc1)c1cccc(S(=O)(=O)N2CCOCC2)c1`: -25.4%; `O=C(CCC(=O)N1C[C@H]2C[C@@H](C1)c1cccc(=O)n1C2)NCc1cccc(C(F)(F)F)c1`: 6.62%.

The record behind these values is publication PMC4336329 (PLoS ONE, 2015).
